From PubChem BioAssay AID445 (National Center for Advancing Translational Sciences (NCATS), 2006)
Among all 110,000 compounds or so, about 40 (0.04%) were called active. The shares of active, inactive and inconclusive entries below differ from those in the screen. Calls come from the whole dose curve; as a rule, active = well fitted curve in the direction sought with a large enough effect in the signal ratio (not every such curve was filed as active); inconclusive = small, poorly fitted or top-dose-only effect, or a change in a side signal; inactive = flat fitted curve, though single readings scatter; the % refers to the signal ratio. Potencies beside an inconclusive call are fits to weak or partial responses and may not hold up.

Assay: IkB Signaling;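 for IkBa stabilization activation: 0% = basal untreated cells and 100% = reference inhibitor full response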
Conditions: ABC-DLBCL IkBa-CBG/CBR dual luciferase ratio (green luciferase fused to IkBa over red control in OCI-Ly3 lymphoma cells), 4 h; IkBa stabilization activation: at 57.1 µM (top of the series), scaled: untreated 0%, proteasome inhibitor 100% unless noted
Outline: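 Curves were fitted separately to fusion (green), unfused (red) and ratio luminescence, then classed by r2, magnitude and activity. Cells: OCI-Ly3, 4 h compound plus doxycycline at 37C; 10 uM MG-132 defined full response.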
Potency is the fitted concentration of half-maximal effect.

SMILES	IkBa stabilization activation	Potency
CCc1ccc(C(=O)CSC2=C(C#N)C(c3ccco3)C(C(C)=O)=C(C)N2)cc1 (stereo not drawn)	inconclusive: 12.8% [signal inhibitor]	
Cc1cccc(CNC(=O)c2cccc(NC(=O)N3CCSc4ncccc43)c2)c1	inconclusive: 0.696% [signal inhibitor]	
COc1ccc(CNc2ccnc(-c3ccccc3CN(C)C)n2)c(OC)c1	inactive: 0.643% [at 11.4 µM, scaled: untreated 0%, proteasome inhibitor 100%]	
Cc1ccc2c(c1)C(c1ccccc1)N(C(=O)c1ccccc1F)CC(=O)N2 (stereo not drawn)	inconclusive: 2.59% [signal inhibitor]	
CCCn1c(SCc2nc(-c3cc(OC)ccc3OC)no2)nnc1-c1ccc(Cl)cc1	inconclusive: -2.02% [signal inhibitor]	
COc1cc(C2C(=O)N(C3CCCCCC3)CC(=O)N2CCC2=CCCCC2)ccc1OC(C)C (stereo not drawn)	inconclusive: 1.47% [signal inhibitor]	
COc1cccc(-c2cncnc2NCc2ccc(OC)cc2OC)c1	inactive: -0.265% [at 11.4 µM, scaled: untreated 0%, proteasome inhibitor 100%]	
O=C(Nc1ccccc1Cl)c1cc(S(=O)(=O)N2CCC3(CC2)OCCO3)ccc1F	inconclusive: 0.0292% [signal inhibitor]	
COC(=O)c1ccccc1NC(=O)c1ccccc1OC	inactive	
COc1ccccc1-c1noc(-c2ccccc2)n1		inconclusive: 15.8 µM [signal inhibitor, partial curve]
C=CCSc1nnc(-c2ccc(Cl)cc2Cl)o1	inactive	
CCn1cc2nc(SCc3ccccc3Cl)n(CCc3ccccc3)c(=O)c2n1	inconclusive: 5.05% [signal inhibitor]	
COc1ccccc1NC1SC(=O)N(c2ccccc2)C1=O (stereo not drawn)		inconclusive: 0.158 µM [signal inhibitor, full curve]
CCC12CN3CC(C)(CN(C1)C3c1ccccc1C)C2=O (stereo not drawn)	inconclusive: 1.52% [signal inhibitor]	
Cc1ccccc1-c1nc2cc(NC(=O)c3cccc(OCCC(C)C)c3)ccc2o1	inconclusive: 5.68% [signal inhibitor]	
O=C1c2ccccc2C(=O)N1c1ccc(Cc2ccc(N3C(=O)c4ccccc4C3=O)cc2)cc1	inactive: 1.5% [at 11.4 µM, scaled: untreated 0%, proteasome inhibitor 100%]	
COc1cc(NC(=O)c2ccc(-c3nc(COc4ccccc4)c(C)o3)cc2)cc(OC)c1	inconclusive: -0.104% [signal inhibitor]	
O=C1Nc2ccccc2C(O)(C(=O)NCc2ccco2)N1c1ccc(Cl)c(Cl)c1 (stereo not drawn)		inconclusive: 1 µM [signal inhibitor, full curve]
CCCNC(=O)CCn1nc(-c2ccccc2)c2ccccc2c1=O	inactive	
O=C(CSc1nnc(CNC(=O)c2ccccc2F)n1-c1ccccc1)Nc1ccccc1F	inconclusive: 1.22% [signal inhibitor]	
CCNc1ncc2nc(-c3cccs3)c(=O)n(Cc3ccc(F)cc3)c2n1	inactive: -0.606% [at 11.4 µM, scaled: untreated 0%, proteasome inhibitor 100%]	
CC(=O)C1=C(c2ccc(Cl)c(Cl)c2)N(C(C)=O)n2c(nnc2C2CCCCC2)S1	inconclusive: 4.42% [signal inhibitor]	

SMILES	IkBa stabilization activation	Potency
O=C(CCc1nnc2n(Cc3ccccc3Cl)c(=O)c3ccccc3n12)Nc1ccc(F)cc1	inconclusive: 8.15% [signal inhibitor]	
Cc1ccc(S(=O)(=O)c2cnc(SC(C)C(=O)Nc3ccccc3)[nH]c2=O)cc1 (stereo not drawn)	inconclusive: 1.46% [signal inhibitor]	
CCOc1ccc(OCC)c(NC(=O)c2cc(CN3CCOCC3)on2)c1	inactive	
CCN1C(=O)c2cccc3c(S(=O)(=O)NCc4ccco4)ccc1c23		inconclusive: 31.6 µM [rising, partial curve]
Cc1ccc(-n2ncc3c(NCCCn4ccnc4)ncnc32)c(C)c1	inactive	
Cc1noc(C)c1CSc1nc2ccccc2c(=O)n1-c1ccccc1	inconclusive: 2.75% [signal inhibitor]	
COCCN1CCN(c2c(C)c(C)nc3cc(-c4cccc(OC)c4)nn23)CC1	inactive	
COc1cccc(C(c2c(O)cc(C)n(Cc3ccco3)c2=O)N2CCN(c3ccccc3)CC2)c1 (stereo not drawn)	inconclusive: 3.6% [signal inhibitor]	
O=C(CSc1nccn1Cc1ccc(Cl)cc1)Nc1ccc2c(c1)OCCO2	inconclusive: 0.909% [signal inhibitor]	
Cc1ccc(SC/C(O)=C(\C#N)c2nc3ccccc3s2)cc1		inconclusive: 5.01 µM [signal inhibitor, full curve]
COC(=O)c1cc2sccc2n1Cc1nc(-c2ccc(Cl)cc2)oc1C	inconclusive: -1.77% [signal inhibitor]	
CCOCCCn1c(SCC(=O)Nc2ccc(C)cc2)nc2ccccc2c1=O	inconclusive: 0.933% [signal inhibitor]	
COc1ccccc1OC1=NS(=O)(=O)c2ccccc21	inactive	
Cn1c(=O)c2c(nc(N3CCCCC3)n2CCSc2nc3ccccc3s2)n(C)c1=O	inactive	
Cc1cc(C)c(NC(=O)C2CCN(c3nnc(C)c4c(C)n(-c5ccccc5)nc34)CC2)c(C)c1	inactive	
COc1ccc(CNC(=O)C(C)n2ccc3cc(S(=O)(=O)N4CCCC4)ccc32)cc1OC (stereo not drawn)	inconclusive: -0.0999% [signal inhibitor]	
COc1ccccc1NC(=O)C1=C(C)Nc2nc(SCc3ccccc3C)nn2C1CC(C)C (stereo not drawn)	inconclusive: 8.79% [signal inhibitor]	
COc1ccc(C(=O)c2oc3ccc(OC)cc3c2N)cc1	inactive	
COc1nnc(-c2ccc(C)c(S(=O)(=O)NCCO)c2)c2ccccc12	inactive	
O=C(COc1ccccc1)Nc1nnc(S(=O)(=O)N2CCCC2)s1	inconclusive: 1.31% [signal inhibitor]	
O=C(OCC1CCCO1)c1ccc2c(c1)N(Cc1ccccc1Cl)C(=O)c1ccccc1S2(=O)=O (stereo not drawn)	inconclusive: -1.2% [signal activator]	
